Here are results for 59 molecules from PubChem BioAssay AID2528 (National Center for Advancing Translational Sciences (NCATS), 2010).

Molecules are shown by their SMILES. “And” between values parts separate entries of the source, which are not always exact repeats. Equal values may be shown once. Out of some 350,000 compounds screened, about 700 (0.2%) were called active. Calls come from the whole dose curve; as a rule, active = well fitted inhibition curve with a large enough effect; inconclusive = small, poorly fitted or top-dose-only effect; inactive = flat fitted curve, though single readings scatter. This is a selection; strong and weak results do not stand in their true shares. A structure can be active in one record and inactive in another. Numbered stars: 1 amine (or outer) side, 2 acyl side, 3 side chain; on linkers, the order of the positions; unused ones are H or OH. Bridge positions count the residues as written; N and C are the ends. Square brackets hold non-standard residues; d marks the D form. Peptide text beside a SMILES is read from it. I, II: the chains in the order shown. Actinocin(9to1) = Cc1c2oc3c(C)ccc(C(=O)[*:1])c3nc-2c(C(=O)[*:2])c(N)c1=O; aThr = C[C@H](O)[C@H](N)C(=O)O; NMeV = CN[C@H](C(=O)O)C(C)C; Sar = CNCC(=O)O
Potency is the fitted concentration of half-maximal effect.

This experiment concerns the target RecQ-like DNA helicase BLM (Homo sapiens) (UniProt P54132). Kind of experiment: qHTS Assay for Inhibitors of Bloom's syndrome helicase (BLM).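 For activity change, negative = inhibition: plate controls were vehicle for no effect and no enzyme for full effect.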 Note: nearly all actives have a fitted effect of over 35% in size. Particulars: recombinant BLM DNA unwinding, fluorescence dequenching; series mostly up to 56.1 µM; activity change, negative = inhibition: at the top concentration. The source says: Survival of cells and the faithful propagation of the genome depend on elaborate mechanisms of detecting and repairing DNA damage. Treatment of advanced cancer relies on radiation therapy or chemotherapy, which kill cancer cells by causing extensive DNA damage. It is often found, that cancer cells develop resistance to therapy through enhanced activity of DNA repair functions; this has led to an increased interest in developing drugs that interfere with DNA repair, which could sensitize cancer cells to conventional therapy.
UniProt P54132, sequence (P54132 whole entry, looked up): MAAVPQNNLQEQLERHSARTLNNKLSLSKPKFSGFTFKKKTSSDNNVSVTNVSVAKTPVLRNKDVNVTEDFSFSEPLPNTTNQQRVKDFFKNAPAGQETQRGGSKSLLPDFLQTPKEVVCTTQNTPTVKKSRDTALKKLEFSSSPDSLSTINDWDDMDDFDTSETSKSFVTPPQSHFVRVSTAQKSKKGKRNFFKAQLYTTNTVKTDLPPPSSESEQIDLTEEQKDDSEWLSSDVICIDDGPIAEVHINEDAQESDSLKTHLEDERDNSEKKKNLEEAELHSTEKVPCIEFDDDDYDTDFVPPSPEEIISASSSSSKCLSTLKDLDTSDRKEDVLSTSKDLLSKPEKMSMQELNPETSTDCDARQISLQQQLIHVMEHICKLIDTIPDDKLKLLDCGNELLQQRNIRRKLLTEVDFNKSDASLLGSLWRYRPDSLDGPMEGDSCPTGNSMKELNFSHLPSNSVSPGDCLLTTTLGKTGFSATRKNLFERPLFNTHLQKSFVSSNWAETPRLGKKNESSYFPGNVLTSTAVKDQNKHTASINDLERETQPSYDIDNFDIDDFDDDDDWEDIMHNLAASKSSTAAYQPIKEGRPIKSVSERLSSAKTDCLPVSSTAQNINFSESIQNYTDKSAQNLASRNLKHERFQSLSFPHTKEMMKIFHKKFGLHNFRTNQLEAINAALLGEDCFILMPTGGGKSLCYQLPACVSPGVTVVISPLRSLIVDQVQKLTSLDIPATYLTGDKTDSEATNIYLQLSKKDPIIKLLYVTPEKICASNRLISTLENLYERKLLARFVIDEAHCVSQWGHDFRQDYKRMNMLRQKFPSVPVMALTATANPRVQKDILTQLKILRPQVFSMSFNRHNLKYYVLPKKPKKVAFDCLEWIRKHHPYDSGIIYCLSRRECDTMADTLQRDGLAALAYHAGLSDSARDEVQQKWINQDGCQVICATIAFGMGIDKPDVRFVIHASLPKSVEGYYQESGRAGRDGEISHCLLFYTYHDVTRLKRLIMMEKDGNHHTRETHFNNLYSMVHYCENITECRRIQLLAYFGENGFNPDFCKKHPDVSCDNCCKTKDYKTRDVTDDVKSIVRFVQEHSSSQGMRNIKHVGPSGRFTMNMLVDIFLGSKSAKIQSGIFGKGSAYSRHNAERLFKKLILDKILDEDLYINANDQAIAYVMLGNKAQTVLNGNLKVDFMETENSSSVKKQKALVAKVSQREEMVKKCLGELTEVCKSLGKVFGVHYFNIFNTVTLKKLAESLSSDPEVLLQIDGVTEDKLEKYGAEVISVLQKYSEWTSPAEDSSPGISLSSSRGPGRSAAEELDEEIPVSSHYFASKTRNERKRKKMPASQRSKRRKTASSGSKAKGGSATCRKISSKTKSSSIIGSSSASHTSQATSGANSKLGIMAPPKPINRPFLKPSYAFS
This validation qHTS assay pertains to human BLM, which is important in resolving abnormal DNA structures formed during replication or homologous recombination. Shutting down the expression of BLM leads to chromosomal instability and higher radiation sensitivity in cultured cells.
The validation assay was a fluorescence quenching based kinetic qHTS for BLM Helicase DNA unwinding. The activity was measured as ATP-dependent separation of a 20-bp DNA duplex extended by 30-nt single-stranded tails (forked duplex). The forked DNA substrate was tagged with rhodamine fluorophore (carboxytetramethyl rhodamine, TAMRA) and BHQ-2 (Black Hole Quencher 2) dark quencher. Strand separation results in an increase in the fluorescence of TAMRA (excitation 525 nm, emission 598 nm). This substrate construct operates in a red-shifted region where very few compound library members have been noted to fluoresce (PubChem AIDs 593 and 594). An additional feature of the assay is the inclusion of 2.5 ug/ml poly (dIdC), to reduce interference by compounds such as DNA intercalators, a major source of false inhibitors.
Ian Hickson, University of Oxford
Opher Gileadi, Structural Genomics Consortium, University of Oxford
Screening Center PI: Austin, C.P.
Screening Center: NIH Chemical Genomics Center [NCGC]
Three uL of reaction buffer (25 mM Tris-HCl (pH 8.0), 5 mM NaCl, 2 mM MgCl2, 1mM DTT, 0.01% Tween- 20, and 2.5 ug/ml poly(dI-dC), including enzyme (50 nM BLM), were dispensed into a 1536-well Greiner black assay plate via solenoid-valve based nanoliter dispensers. Compounds (23 nl each in columns 5-48) and control (23 nl each in column 2 as dose-response) were transferred via a Kalypsys pintool equipped with a 1536-pin array. The plates were incubated for 15 min at room temperature, and then 1 ul of substrates (200 nM DNA and 2 mM ATP, final concentrations) was added to start the reaction. The plate was transferred into a ViewLux high-throughput CCD imager where the reaction progress was measured in a discontinuous kinetic mode (two reads spaced 2 hours apart, with intermediate room temperature incubation of the covered assay plate) by using standard red-fluorescence optics (excitation filter 525 nm, emission filter 598 nm). Enzyme-free and vehicle (DMSO) controls were included for signal normalization.
A general note: Quantitative high-throughput screening tests each substance at several concentrations.
As to `O=C(O)c1cc(N=Nc2ccc(-c3ccc(N=Nc4ccc(O)c(C(=O)O)c4)cc3)cc2)ccc1O`, the Potency is active: 17.8 µM.
As to `COc1ccc2c(c1OC)C(=O)O[C@@H]2[C@H]1c2c(cc3c(c2OC)OCO3)CCN1C`, the Potency entry was “inactive”.
With `COc1ccc(OC)c(NC(=O)COC(=O)c2cc3c(s2)CCC3)c1`, the Potency is active: 15.8 µM.
As for `Cc1cc(C(C)(C)C)c(O)c(C)c1CC1=NCCN1`, the Potency entry was “inactive”.
For `NC(Cc1ccc(Cl)cc1)C(=O)O` (centres undefined), the “activity change, negative = inhibition” value was inactive: -0.398%.
As to `CC(N)=NCCCC[C@H](N)C(=O)O`, the “activity change, negative = inhibition” value is inactive: 1.41%.
Take `COc1cc2c(cc1O)CCC1C2CC[C@@]2(C)C1CC[C@@H]2O` (some centres undefined): the “activity change, negative = inhibition” value was inactive: -1.42%.
In the case of `CC(C)(C(=O)O)c1ccc(C(O)CCCN2CCC(C(O)(c3ccccc3)c3ccccc3)CC2)cc1` (centres undefined), the Potency entry was “inactive”.
Regarding `CC(C)N(C(=O)Nc1ccc2nsnc2c1)C(C)C`, the Potency was active: 5.62 µM.
On to `CC(C)(C)NC[C@@H](O)COc1nsnc1N1CCOCC1`, for which the “activity change, negative = inhibition” value was inactive: -14%.
Regarding `COc1ccc2c(c1OC)C(=O)OC2C1c2c(cc3c(c2OC)OCO3)CCN1C` (centres undefined), the Potency entry was “inactive”.
Regarding `CCCN1C[C@H](CSC)C[C@@H]2c3cccc4[nH]cc(c34)C[C@H]21`, the Potency result is “inactive”.
As to `O=C1OC2(c3ccccc31)c1cc(I)c(O)c(I)c1Oc1c2cc(I)c(O)c1I`, the Potency was active: 22.4 µM.
Turning to `COc1cc(O)c2c(c1)oc(=O)c1c3cc(O)c(O)cc3oc21`, the Potency is active: 17.8 µM and active: 12.6 µM.
Take `CCC(CNc1cc(OC)cc2cccnc12)NC1CCCCC1` (centres undefined): the Potency was active: 8.91 µM.
Consider `CC(=O)SC1CC2=CC(=O)CC[C@@]2(C)C2CC[C@@]3(C)[C@@H](CC[C@@]34CCC(=O)O4)C12` (some centres undefined), for which the “activity change, negative = inhibition” value was inactive: -8.34%.
On the same count and under the same terms, as for `COc1cc2nc(N3CCN(C(=O)[C@H]4COc5ccccc5O4)CC3)nc(N)c2cc1OC`, the figure is inactive: 23.8%.
For the molecule `COC(=O)c1sc(-c2cccs2)cc1NC(=O)/C=C/C(=O)O`, the Potency is active: 15.8 µM.
Regarding `CCCCCC[C@@H]([C@@H](C)O)n1cnc2c(N)ncnc21`, the “activity change, negative = inhibition” value was inactive: 7.88%.
Turning to `CN1C(C)(C)CCCC1(C)C`, the Potency result was “inactive”.
Regarding `Cc1cn(C2C=CC(CO)O2)c(=O)[nH]c1=O` (centres undefined), the “activity change, negative = inhibition” value was inactive: -11.3%.
For the molecule `Cc1ccccc1NC1=C/C(=N\S(=O)(=O)c2cccs2)c2ccccc2C1=O`, the Potency is active: 20 µM.
Turning to `Cc1oncc1C(=O)Nc1ccc(C(F)(F)F)cc1`, the Potency result is “inactive”.
With `O=C(O)c1cc(O)c2c(c1)C(=O)c1cccc(O)c1C2=O`, the “activity change, negative = inhibition” value was inactive: 3.07%.
As for `Fc1ccc(C(c2ccc(F)cc2)N2CCN(C/C=C/c3ccccc3)CC2)cc1`, the Potency entry is “inactive”.
With `CCOC(=O)C1=C[C@@]2(CC)CCCN3CCc4c(n1c1ccccc41)C32` (some centres undefined), the “activity change, negative = inhibition” value is inactive: 3.15%.
As for `Cc1cc(C)c(S(=O)(=O)Nc2cc(SCC(=O)O)c(O)c3ccccc23)cc1C`, the Potency was active: 15.8 µM.
Take `O=[N+]([O-])c1ccc(-c2nc(-c3ccc(F)cc3)c(-c3ccncc3)[nH]2)cc1`: the “activity change, negative = inhibition” value is inactive: -6.92%.
Take `COc1ccc(NC(=O)/C(C#N)=C\c2ccc(Br)o2)cc1`: the “activity change, negative = inhibition” value was inactive: -20.5%.
For `O=C(O)C1Nc2c(O)cccc2C2C=CCC12` (centres undefined), the Potency was active: 4.47 µM.
With `Cc1c2oc3c(C)ccc(C(=O)N[C@@H]4C(=O)N[C@@H](C(C)C)C(=O)N5CCC[C@@H]5C(=O)N(C)CC(=O)N(C)[C@@H](C(C)C)C(=O)O[C@H]4C)c3nc-2c(C(=O)N[C@@H]2C(=O)N[C@@H](C(C)C)C(=O)N3CCC[C@@H]3C(=O)N(C)CC(=O)N(C)[C@@H](C(C)C)C(=O)O[C@H]2C)c(N)c1=O` (I: [aThr]V[dP][Sar][NMeV] / II: [aThr]V[dP][Sar][NMeV]; ester I:1-I:C, II:1-II:C; linker I:N-II:N via Actinocin(9to1)), the “activity change, negative = inhibition” value was inactive: -17.9%.
On to `CN=C(NC#N)Nc1ccc(C2=NNC(=O)C[C@@H]2C)cc1`, for which the “activity change, negative = inhibition” value was inactive: 5.76%.
On to `C[N+]1(CCCCC[N+]2(C)CCCC2)CCCC1`, for which the Potency entry was “inactive”.
As to `CC1=C(CC(=O)O)c2cc(F)ccc2/C1=C\c1ccc(S(C)=O)cc1` (centres undefined), the Potency entry was “inactive”.
In the case of `CC[C@H](NC(C)C)[C@H](O)c1ccc(O)c(O)c1`, the “activity change, negative = inhibition” value is inactive: 0.939% [at 21.4 µM].
For the molecule `C[C@]12CC[C@@H]3c4ccc(O)cc4CC[C@H]3[C@@H]1CC[C@@H]2O`, the Potency result is “inactive”.
On the same count and under the same terms, to `COc1cc2c(ccc3cc(OC)c(OC)c(O)c32)cc1O` belongs active: 25.1 µM; to `O=c1cc2oc3cc(O)c(O)cc3c(-c3ccccc3O)c-2cc1O`, active: 6.31 µM.
For `CCOC(=O)[C@@]12C[C@@H]1/C(=N/O)c1ccccc1O2`, the “activity change, negative = inhibition” value was inactive: 2.13%.
Regarding `OC(CN1CCC(Cc2ccc(F)cc2)CC1)c1ccc(Cl)cc1` (centres undefined), the “activity change, negative = inhibition” value was inactive: -3.97%.
With `COc1ccc(C(=O)C2CCCN(C(=O)CCc3scnc3C)C2)c(C)c1` (centres undefined), the Potency was active: 28.2 µM.
Turning to `Cc1cc(/C=N/NC(=O)C(O)(c2ccccc2)c2ccccc2)c(C)n1-c1cccc(C(=O)O)c1`, the Potency is active: 10 µM.
As for `O=C(N/N=C/C=C/c1ccco1)c1cccs1`, the Potency was active: 22.4 µM.
On to `C[n+]1cc2c3c(ccc2c2ccc4cc5c(cc4c21)OCO5)OCO3`, for which the Potency entry was “inactive”.
Turning to `CCOc1ccccc1CNc1ccc(O)cc1`, the Potency was active: 28.2 µM.
For the molecule `CCCCCCCCCCCCCCCC(O)C(N)CO` (centres undefined), the “activity change, negative = inhibition” value was inactive: 0.0472%.
For the molecule `CC(=O)O[C@]1(C(C)=O)CC[C@H]2[C@@H]3C=C(Cl)C4=CC(=O)[C@@H]5C[C@@H]5[C@]4(C)[C@H]3CC[C@@]21C`, the “activity change, negative = inhibition” value is inactive: 2.59%.
With `N[C@@H]1CONC1=O`, the Potency entry is “inactive”.
For `N[C@@H](Cc1c[nH]c2ccc(O)cc12)C(=O)O`, the “activity change, negative = inhibition” value was inactive: -4.51%.
For `C[C@@](N)(C(=O)O)c1ccc(C(=O)O)cc1`, the Potency result was “inactive”.
With `O=c1[nH]n2c(=O)c3c([nH]c2c1N=Nc1cccc(Cl)c1)CCC3`, the Potency was active: 15.8 µM.
As to `O=C(/C=C\c1ccco1)c1ccc(NC(=O)c2ccco2)cc1`, the Potency is active: 20 µM.
Regarding `S=c1[nH]nc(-c2cccnc2)n1/N=C/C=C/c1ccco1`, the Potency was active: 20 µM.
As to `CC(=O)O[C@]1(C(C)=O)CC[C@@H]2[C@@H]3C=C(Cl)C4=CC(=O)[C@H]5C[C@@H]5[C@]4(C)[C@H]3CC[C@]21C`, the “activity change, negative = inhibition” value was inactive: -1.3% [at 21.4 µM].
In the case of `Clc1ccc(Cn2c(CN3CCCC3)nc3ccccc32)cc1`, the Potency result is “inactive”.
For `COc1c(O)cc2c(=O)oc3c(OC)c(O)cc4c(=O)oc1c2c34`, the Potency was active: 14.1 µM.
As for `CCOc1cc(/C=N/NC(=O)c2ccc(-c3csc(Nc4ccc(C)cc4)n3)cc2)ccc1OCC(=O)O`, the Potency is active: 15.8 µM.
In the case of `CC(=O)Oc1ccccc1C(=O)O`, the “activity change, negative = inhibition” value was inactive: 3.35%.
On to `O=C(OCC(=O)N1CCN(C(=O)c2ccco2)CC1)c1cc(-c2ccco2)nc2ccccc12`, for which the Potency is active: 8.91 µM.
